{"source": "paper PMC12040169", "about": "(PLOS Biology, 2025)", "note": "This is one part of the list.", "data": [{"system": "T1, C. trachomatis L2/434/Bu expressing GFP (CTL2-GFP)", "T1 construct": "L2/434/Bu GFP intracellular growth in HeLa cells", "parameters": "species or system HeLa; C. trachomatis total inclusion area by high-content imaging, normalised to DMSO", "conditions": "total inclusion area; 28.5 h, 10 µM; inhibitor", "outline": "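Host cell viability was gauged from Hoechst-stained nuclei counts, while chlamydial growth was taken from total inclusion area and inclusion number per well. Cells were fixed and imaged by high-content microscopy once bulk GFP and resorufin fluorescence had been measured.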", "values": [{"compound": "Cc1ccccc1-n1ncc2c(=O)n(CC(=O)N3CCCCC3)cnc21", "note": "[CBK287688]", "% of control remaining": 125.165}, {"compound": "CN1CCC2(CC1)NCCc1c2ccn1S(=O)(=O)c1cccc2c(N(C)C)cccc12", "note": "[CBK061633C]", "% of control remaining": 72.5419}, {"compound": "O=C(O)c1cc(C=Cc2ccc(Cl)c([N+](=O)[O-])c2)nc2ccccc12", "note": "[CBK297495]", "% of control remaining": 69.6379}, {"compound": "O=[N+]([O-])c1ccc(NCCNc2nc3ccccc3nc2N2CCOCC2)cc1", "note": "[CBK266342]", "% of control remaining": 82.1254}, {"compound": "CCOC(=O)c1ccc(Cn2c(-c3ccccc3)nnc2-c2ccccc2)o1", "note": "[CBK267691]", "% of control remaining": 78.2359}, {"compound": "Cc1nc2c(c(=O)n1C)CN(Cc1cc(=O)n3cccc(O)c3n1)C2", "note": "[CBK306991]", "% of control remaining": 67.1748}, {"compound": "COc1ccccc1C(NC(=O)C1CCN(C(=O)OC(C)C)CC1)c1ccccn1", "note": "(stereo not drawn) [CBK059649]", "% of control remaining": 77.772}, {"compound": "Cc1ccc(NC2=N[C@H]3[C@@H](O)[C@H](O)C[C@H](C(=O)N4CCCCC4)[C@H]3S2)cc1", "note": "[CBK288951]", "% of control remaining": 91.1333}, {"compound": "CSCCCNC(=O)N(C)C1CCN(C)C1", "note": "(stereo not drawn) [CBK155995]", "% of control remaining": 106.183}, {"compound": "O=C1NCCCC12CCN(Cc1cccc3cccnc13)CC2", "note": "[CBK284826]", "% of control remaining": 107.38}, {"compound": "Nc1n[nH]c(=O)c2c1ncn2[C@H]1C[C@@H](O)[C@@H](CO)O1", "note": "[CBK201169]", "% of control remaining": 131.561}, {"compound": "CCCCOc1ccc(C(=O)N(C)c2ccc(CCC)cc2)cc1", "note": "[CBK161619]", "% of control remaining": 56.7064}, {"compound": "Cc1nn(C)c(C)c1CC(=O)N1CCc2c(sc3ncnc(N)c23)C1", "note": "[CBK306065]", "% of control remaining": 65.8221}, {"compound": "CC(C)c1ccc(S(=O)(=O)N(CCC#N)Cc2ccccc2)cc1", "note": "[CBK043565]", "% of control remaining": 87.9037}, {"compound": "Cc1cc(CNC(=O)C2CC(=O)N(Cc3ccccn3)C2)ccc1F", "note": "(stereo not drawn) [CBK305557]", "% of control remaining": 91.0306}, {"compound": "C=CCn1c(-c2sc(NC(=O)CNC(=O)C(C)(C)C)nc2C)n[nH]c1=S", "note": "[CBK297907]", "% of control remaining": 61.1427}, {"compound": "Cn1c(CNc2ccccc2C(=O)O)c(C#N)c2ccccc21", "note": "[CBK286977]", "% of control remaining": 103.475}, {"compound": "Cc1ccc2[nH]c(SCC(=O)Nc3ccc(C(=O)O)cc3)nc2c1", "note": "[CBK297526]", "% of control remaining": 90.3886}, {"compound": "Cc1ccc(CC(=O)N2CCc3nn(C(C)C)c(=O)cc3C2)cc1", "note": "[CBK284499]", "% of control remaining": 109.886}, {"compound": "COC(=O)[C@@H]1CN(C(=O)c2cccs2)C[C@H]1c1ccc(OC)cc1", "note": "[CBK283725]", "% of control remaining": 93.6521}, {"compound": "Cc1cccc(NC(=O)[C@@H](NC(=O)c2ccccc2F)C(C)C)c1C", "note": "[CBK297509]", "% of control remaining": 88.771}, {"compound": "CN1CCN(c2nc(-c3ccco3)cnc2N)CC1", "note": "[CBK063449]", "% of control remaining": 108.236}, {"compound": "COc1ccccc1CC(=O)N(Cc1cccnc1)C[C@@H]1CCC(=O)N1", "note": "[CBK307504]", "% of control remaining": 85.4429}, {"compound": "O=C(O)CCC(=O)N1N=C(c2ccccc2)CC1c1ccc2nccnc2c1", "note": "(stereo not drawn) [CBK266650]", "% of control remaining": 87.726}, {"compound": "O=C(Cc1c[nH]c2ccccc12)Nc1ccccc1N1CCNCC1", "note": "[CBK028288T]", "% of control remaining": 92.6214}, {"compound": "Cc1nc2sccn2c1CN1CCc2sccc2C1C", "note": "(stereo not drawn) [CBK282807]", "% of control remaining": 91.5748}, {"compound": "Cc1sc2ncnc(N3CCCC3Cn3cccn3)c2c1C", "note": "(stereo not drawn) [CBK304570]", "% of control remaining": 30.8225}, {"compound": "CC(C)N1CCC(CNC(=O)c2cc3ccccc3c(=O)s2)CC1", "note": "[CBK282711]", "% of control remaining": 140.884}, {"compound": "O=C(NCc1ccccn1)Nc1ccc2c(c1)OCO2", "note": "[CBK267014]", "% of control remaining": 110.896}, {"compound": "COCOc1ccc(-c2ncc(OCCN3CCCC3=O)nc2NC(C)=O)cc1", "note": "[CBK145253]", "% of control remaining": 88.3124}, {"compound": "CN1N=C(c2ccccc2)CC1=O", "note": "[CBK067774]", "% of control remaining": 91.0282}, {"compound": "Cc1ccc(S(=O)(=O)NC2c3cccc4cccc(c34)C2Sc2nncn2N)cc1", "note": "(stereo not drawn) [CBK265873]", "% of control remaining": 83.9034}, {"compound": "Cc1cc(Cl)c(OCCn2c3ccccc3c3ccccc32)c(Br)c1", "note": "[CBK264826]", "% of control remaining": 104.634}, {"compound": "C#CCOc1ccc(/C=C2/SC(=S)N(CCC(=O)O)C2=O)cc1", "note": "[CBK265667]", "% of control remaining": 104.504}, {"compound": "NC(=O)CN1CCCc2ccccc21", "note": "[CBK138343]", "% of control remaining": 86.4766}, {"compound": "CCOC(=O)c1c(NC(=O)CSc2nc3ccccc3s2)sc2c1CCC2", "note": "[CBK263220]", "% of control remaining": 126.223}, {"compound": "COCCNC(=O)c1sc2ccccc2c1C1CCN(Cc2ccc3ncccc3c2)C1", "note": "(stereo not drawn) [CBK285680]", "% of control remaining": 96.5024}, {"compound": "O=C(Nc1ccc2oc(-c3ccccc3)nc2c1)C1CCCO1", "note": "(stereo not drawn) [CBK107724]", "% of control remaining": 110.319}, {"compound": "Cc1ccc(S(=O)(=O)N(CCO)CC(O)Cn2c3ccc(Cl)cc3c3cc(Cl)ccc32)cc1", "note": "(stereo not drawn) [CBK263392]", "% of control remaining": 72.4165}, {"compound": "O=C(NC(=S)Nc1ccc2oc(-c3cncc(Br)c3)nc2c1)c1cc([N+](=O)[O-])ccc1N1CCOCC1", "note": "[CBK268864]", "% of control remaining": 82.503}, {"compound": "CCc1c(Cc2[nH]c(C)c(C(C)=O)c2C)[nH]c(C(=O)O)c1C", "note": "[CBK286717]", "% of control remaining": 74.957}, {"compound": "O=[N+]([O-])c1ccc2c(c1)nnn2CN1CCCCC1", "note": "[CBK261663]", "% of control remaining": 101.136}, {"compound": "O=C(NC1CCCCC1)c1cc(NC(=O)c2ccccc2C(=O)O)ccc1Cl", "note": "[CBK287062]", "% of control remaining": 88.9994}, {"compound": "COc1ccc(C2CC(c3ccc(Cl)cc3)Nc3ncnn32)c(OC)c1", "note": "(stereo not drawn) [CBK287848]", "% of control remaining": 124.125}, {"compound": "Cc1cc(C)c(-c2csc(NS(=O)(=O)c3cccc(C(=O)O)c3)n2)cc1C", "note": "[CBK296698]", "% of control remaining": 103.774}, {"compound": "CC1CCC(C(N)=O)CN1C(=O)c1cc(Br)c[nH]1", "note": "(stereo not drawn) [CBK305769]", "% of control remaining": 58.0587}, {"compound": "Cc1nn(C)c(C)c1CCNC(=O)CC1CCCCN1C", "note": "(stereo not drawn) [CBK281774]", "% of control remaining": 110.753}, {"compound": "O=C1CCCN1CCCNc1ncnc2c1cnn2-c1ccc(Cl)cc1", "note": "[CBK265838]", "% of control remaining": 0}, {"compound": "Cc1ccc(-c2n[nH]c(=S)n2CCC(=O)NC(C)c2ccc3c(c2)CCCC3)cc1", "note": "(stereo not drawn) [CBK295666]", "% of control remaining": 97.4484}, {"compound": "O=C(CSc1nc2ccccc2c(=O)[nH]1)Nc1ccc(Cl)c(C(=O)O)c1", "note": "[CBK268246]", "% of control remaining": 101.834}, {"compound": "O=C(NCCN1CCOCC1)c1ccc(-c2ccco2)nc1NCc1cccnc1", "note": "[CBK076112]", "% of control remaining": 92.3969}]}]}
